Molecular target: T1, CRNN (human, UniProt Q9UBG3 1-495)
T1 construct: endogenous prey from cell lysate
Assay: AP-MS, 3xFLAG bait, breast cell lines

T1 sequence (Q9UBG3 whole entry): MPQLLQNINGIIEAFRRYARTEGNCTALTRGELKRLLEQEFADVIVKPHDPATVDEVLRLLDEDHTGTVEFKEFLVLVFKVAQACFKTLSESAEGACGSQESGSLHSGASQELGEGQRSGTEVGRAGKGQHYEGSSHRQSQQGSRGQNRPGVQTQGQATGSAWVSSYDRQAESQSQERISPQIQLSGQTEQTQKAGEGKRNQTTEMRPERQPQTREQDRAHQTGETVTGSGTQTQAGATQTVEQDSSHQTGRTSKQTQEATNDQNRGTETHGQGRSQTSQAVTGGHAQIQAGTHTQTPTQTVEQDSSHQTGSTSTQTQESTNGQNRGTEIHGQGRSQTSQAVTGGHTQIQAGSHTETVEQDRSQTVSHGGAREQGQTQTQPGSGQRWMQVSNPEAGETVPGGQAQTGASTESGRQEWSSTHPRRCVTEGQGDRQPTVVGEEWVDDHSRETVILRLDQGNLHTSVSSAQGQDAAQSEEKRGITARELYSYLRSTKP

binding result: no binding
B1: AKT1 E17K mutant (enzyme)
chain: not shown
